{
  "source": "PubChem BioAssay AID686978",
  "about": "(National Center for Advancing Translational Sciences (NCATS), 2013)",
  "note": "In all, about 420,000 compounds went through this assay and about 64,000 (15%) were called active. The shares of active, inactive and inconclusive entries below differ from those in the screen. Calls follow the shape of the dose curve; as a rule, active = well fitted inhibition curve with a large enough effect; inconclusive = small, poorly fitted or top-dose-only effect; inactive = flat fitted curve, though single readings scatter. Potencies of inconclusive entries are left out as doubtful fits. % is scaled to controls: 0 for no effect and ±100 for the full control effect; potency is read from the fitted curve at half-maximal effect; tags tell the direction and shape of the fitted curve.",
  "data": [
    {"assay": "qHTS for Inhibitors of human tyrosyl-DNA phosphodiesterase 1 (TDP1): qHTS in cells in absence of CPT; also: nearly all actives have a fitted effect of over 55% in size", "conditions": "DT40 Tdp1-/- hTDP1 cells, no CPT, ATP luminescence, 48 h; activity change, negative = growth inhibition: at 46.2 µM (top of the series) unless noted", "outline": "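Growth kinetics read by CellTiter-Glo luminescence after ≥48 hr at 37 °C. Cells: DT40 Tdp1-/- stably carrying human TDP1, 400 per well, compound exposure in the absence of CPT (DMSO vehicle).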", "values": [
      {"smiles": "Nc1c(C(=O)N2CCCCCC2)oc2ccccc12", "Potency": "inconclusive [inhibitor, single point]"},
      {"smiles": "CC(C)NC1(C#N)CCN(Cc2ccccc2)CC1", "Potency": "inactive"},
      {"smiles": "C=CC[N+](C)(C)CCN1C(=O)C2C(c3ccccc3)C=CC(c3ccccc3)C2C1=O", "note": "(stereo unspecified)", "Potency": "inactive"},
      {"smiles": "CCn1nnc(-c2ccccc2NC(=O)c2cc(OC)c(OC)c(OC)c2)n1", "Potency": "active: 14.6 µM"},
      {"smiles": "O=C(c1ccc(Br)o1)N1CCN(Cc2ccccc2Cl)CC1", "Potency": "inconclusive [inhibitor, single point]"},
      {"smiles": "CCCN(CCC)C(=O)Cn1ccc(=N)c2ccccc21", "Potency": "inconclusive [inhibitor, partial curve]"},
      {"smiles": "COc1cccc(CN2CCOc3ccc(CN4C[C@@H](C)O[C@@H](C)C4)cc3C2)c1OC", "Potency": "inactive"},
      {"smiles": "Cc1cc(Br)cn2c(Cc3cccc(F)c3)c(-c3ccc(C#N)cc3)nc12", "Potency": "inconclusive [inhibitor, single point]"},
      {"smiles": "CC(OC(=O)C1CCN(S(=O)(=O)c2ccc(C(C)(C)C)cc2)CC1)C(=O)N(C)C1CCCCC1", "note": "(stereo unspecified)", "activity change, negative = growth inhibition": "inconclusive: -32.6% [inhibitor]"},
      {"smiles": "COc1ccccc1C(=O)Nc1nnc(S(=O)(=O)N2CCCCCC2)s1", "activity change, negative = growth inhibition": "inconclusive: -31.6% [inhibitor]"},
      {"smiles": "CCOc1ccccc1C(=O)Nc1ccc(S(=O)(=O)N2CCCCC2c2cccnc2)cc1", "note": "(stereo unspecified)", "Potency": "active: 18.4 µM"},
      {"smiles": "CCn1c(SCC(=O)N/N=C/c2c[nH]c3ccccc23)nnc1-c1ccc(C(C)(C)C)cc1", "Potency": "inconclusive [inhibitor, single point]"},
      {"smiles": "c1ccc(-c2nc3ccccn3c2-c2ccccc2)cc1", "Potency": "active: 11.6 µM"},
      {"smiles": "COc1ccc(-c2nc(CNS(=O)(=O)c3ccc(C)cc3)cs2)cc1", "Potency": "inconclusive [inhibitor, single point]"},
      {"smiles": "CCc1ccc(C(=O)C(C)OC(=O)CN2C(=O)NC3(CCCC3)C2=O)cc1", "note": "(stereo unspecified)", "Potency": "inconclusive [inhibitor, full curve, poor fit]"},
      {"smiles": "O=C(COc1ccc(S(=O)(=O)NC2CCCCC2)cc1)N1CCN(c2ccc(F)cc2)CC1", "Potency": "active: 20.6 µM"},
      {"smiles": "COc1ccc(CC(=O)Nc2ccccc2N2CCCC2)cc1OC", "Potency": "inconclusive [inhibitor, partial curve]"},
      {"smiles": "COc1cccc(NC(=O)CSC2=Nc3ccccc3C3=NC(CCC(=O)NCc4ccco4)C(=O)N23)c1", "note": "(stereo unspecified)", "Potency": "inconclusive [inhibitor, single point]"},
      {"smiles": "Cn1cccc1C(=O)N1CCC2(CCCN(C(=O)Nc3cccc(F)c3)C2)CC1", "Potency": "inconclusive [inhibitor, partial curve, poor fit]"},
      {"smiles": "COc1ccccc1NC(=S)NC(=O)C1CC1", "Potency": "inactive"},
      {"smiles": "CCCn1cnc2sc(C(N)=O)c(C)c2c1=O", "Potency": "inactive"},
      {"smiles": "COc1ccc(N2CCN(C3CCCN(Cc4ccc(F)cc4Cl)C3)CC2)cc1", "note": "(stereo unspecified)", "Potency": "inconclusive [inhibitor, single point]"},
      {"smiles": "CCC1=C(c2cc(OC)c(OC)c(OC)c2)C2(CCCC2)C(=O)O1", "Potency": "inconclusive [inhibitor, single point]"},
      {"smiles": "COc1ccc(C(=O)N2CCc3cc(OC)c(OC)cc3C2COc2ccccc2OC)cc1", "note": "(stereo unspecified)", "Potency": "active: 29.1 µM"},
      {"smiles": "CCc1ccc(-c2nc(NC(=S)NC(=O)c3cccs3)sc2C)cc1", "Potency": "inconclusive [inhibitor, single point]"},
      {"smiles": "CCC[C@@H](CN1CCC[C@H]1CN1C(N)=NC[C@H]1C(C)C)N1C[C@@H]([C@H](C)CC)N(CCCC2CCCC2)C1=N", "Potency": "inconclusive [inhibitor, single point]"},
      {"smiles": "S=C(NCCSCc1ccccc1Cl)Nc1ccccc1", "Potency": "inconclusive [inhibitor, single point]"},
      {"smiles": "COc1ccc(-c2oc3cc(O)c(OC)c(O)c3c(=O)c2OC)cc1", "Potency": "active: 13 µM"},
      {"smiles": "CCCCN(CC)C(=O)Nc1ccc2c(c1)N(C)C(=O)c1ccccc1S2", "Potency": "inconclusive [inhibitor, single point]"},
      {"smiles": "O=C(c1[nH]c(C(F)(F)F)nc1-c1ccccc1)N1CCC(C(O)(c2ccccc2)c2ccccc2)CC1", "Potency": "inconclusive [inhibitor, single point]"},
      {"smiles": "COc1ccc(-c2cc(C(=O)N3CCc4ccccc4C3)no2)cc1", "activity change, negative = growth inhibition": "inconclusive: -35.4% [inhibitor]"},
      {"smiles": "COc1ccc(CC(=O)N2CCN(c3ccccc3F)CC2)cc1OC", "Potency": "inconclusive [inhibitor, partial curve]"},
      {"smiles": "CCCn1c(=O)c2sccc2n2c(CCCC(=O)Nc3ccc(C)c(F)c3)nnc12", "Potency": "active: 23.1 µM"},
      {"smiles": "O=C(NC1CCN(CC(=O)N(c2ccccc2)c2ccccc2)CC1)c1ccc([N+](=O)[O-])cc1", "Potency": "inconclusive [inhibitor, partial curve]"},
      {"smiles": "O=C(Nc1ccc(Cl)c(Cl)c1)C1CC1", "Potency": "inconclusive [inhibitor, single point]"},
      {"smiles": "COc1ccc(N(CC(=O)NCCSc2ccccn2)S(=O)(=O)c2ccc(C)cc2)cc1OC", "Potency": "inconclusive [inhibitor, partial curve]"},
      {"smiles": "CN1CCN(c2ccc(CNS(=O)(=O)c3ccc(F)cc3Cl)cc2)CC1", "Potency": "inconclusive [inhibitor, partial curve, poor fit]"},
      {"smiles": "CCOC(=O)c1nnn2c1nc(N1CCOCC1)c1ccccc12", "Potency": "inactive"},
      {"smiles": "CCN1CCN(c2cc(C)c3cc(NC(=O)c4ccc(Br)o4)ccc3n2)CC1", "Potency": "inconclusive [inhibitor, single point]"},
      {"smiles": "O=C(/C=C/c1ccc2ccccc2n1)c1cc(Br)ccc1O", "Potency": "inconclusive [inhibitor, partial curve]"},
      {"smiles": "CC(C)C[C@@H](COc1ccccc1)N1CCN(CC(C)C)CCC1=O", "activity change, negative = growth inhibition": "inconclusive: -33.7% [inhibitor]"},
      {"smiles": "Nc1ccc(Sc2ccc([N+](=O)[O-])cc2)cc1", "Potency": "inconclusive [inhibitor, partial curve, poor fit]"},
      {"smiles": "CC1(c2cccc(Br)c2)NC(=O)N(CC(=O)NC2CCCCC2)C1=O", "note": "(stereo unspecified)", "Potency": "inactive"},
      {"smiles": "COc1cc(/C=N\\NC(=O)CNC(=O)C2COc3ccccc3O2)ccc1O", "note": "(stereo unspecified)", "Potency": "inactive"},
      {"smiles": "Cc1ccc(C(=O)COC(=O)c2cc(-c3ccc(Cl)cc3)nc3ccccc23)cc1", "Potency": "active: 20.6 µM"},
      {"smiles": "COc1ccc(-c2noc(CN3CCN(c4ccccc4OC)CC3)n2)cc1OC", "Potency": "inconclusive [inhibitor, single point]"},
      {"smiles": "CCN1/C(=C2\\C(=O)N(C)C(=S)N2C)C=Cc2cc(OC)ccc21", "Potency": "inconclusive [inhibitor, single point]"},
      {"smiles": "CCN1CCN(CC(=O)N2CCCC(C(=O)c3ccc(Oc4ccccc4)cc3)C2)CC1", "note": "(stereo unspecified)", "Potency": "inconclusive [inhibitor, single point]"},
      {"smiles": "O=C(N/N=C/c1ccc(OC(=O)c2ccc([N+](=O)[O-])cc2)cc1)c1cccnc1", "activity change, negative = growth inhibition": "inconclusive: -32.5% [inhibitor]"},
      {"smiles": "COC(=O)c1c(NC(=O)CSc2nnc3ccccn23)sc2c1CCC2", "Potency": "inconclusive [inhibitor, single point]"},
      {"smiles": "Cc1ccc(/C=C/C(=O)OCC(=O)N(C)c2c(N)n(Cc3ccccc3)c(=O)[nH]c2=O)o1", "Potency": "inactive"},
      {"smiles": "O=C1C2CCCN2C(=O)N1CCCN1CCN(c2cccc(Br)c2)CC1", "note": "(stereo unspecified)", "activity change, negative = growth inhibition": "inconclusive: -33.2% [inhibitor]"},
      {"smiles": "Cc1cccc(/C=N\\NC(=O)c2csnn2)c1", "activity change, negative = growth inhibition": "inconclusive: -25.6% [inhibitor]"},
      {"smiles": "Cc1cccc(NC(=O)C2CCCN(S(=O)(=O)c3ccc4[nH]c(=O)ccc4c3)C2)n1", "note": "(stereo unspecified)", "Potency": "inactive"},
      {"smiles": "CCOC(=O)C1=C(C)Nc2nc(=S)[nH]n2C1c1ccc(Cl)cc1", "note": "(stereo unspecified)", "Potency": "inconclusive [inhibitor, single point]"},
      {"smiles": "Cc1cccc(CCNS(=O)(=O)c2ccc3c(c2)CCN3C(=O)CCC(=O)O)c1", "Potency": "inactive"},
      {"smiles": "COc1ccc2c(CC(=O)Nc3ccc(OC)nc3)coc2c1", "Potency": "inconclusive [inhibitor, single point]"},
      {"smiles": "CCOc1ccc(C(=O)NC(=S)Nc2ccc(NC(=O)C(C)C)cc2)cc1[N+](=O)[O-]", "Potency": "inactive"},
      {"smiles": "CC1(C2CC2)NC(=O)N(CC(=O)Nc2ccc(Cl)c([N+](=O)[O-])c2)C1=O", "note": "(stereo unspecified)", "Potency": "inactive"},
      {"smiles": "Cc1ccccc1C1(CC(=O)N2CCCC2c2nccs2)CC(=O)N(C2CCCC2)C1=O", "note": "(stereo unspecified)", "Potency": "inconclusive [inhibitor, single point]"},
      {"smiles": "Cc1ccc(C(=O)O)cc1[N+](=O)[O-]", "Potency": "inactive"},
      {"smiles": "CC(=O)c1ccc(OC(C)c2nc3ccccc3s2)cc1", "note": "(stereo unspecified)", "Potency": "inconclusive [inhibitor, single point]"},
      {"smiles": "CCNc1nc(NCc2ccccc2)nc(SCC(N)=O)n1", "Potency": "inconclusive [inhibitor, single point]"},
      {"smiles": "N/C(Cc1ccc(Cl)cc1)=N\\OC(=O)c1cccc2ccccc12", "Potency": "active: 29.1 µM"},
      {"smiles": "CC1=CC(=O)C=CC1(C)C(Cl)(Cl)Cl", "note": "(stereo unspecified)", "Potency": "inactive"},
      {"smiles": "O=c1c(CN2CCN(Cc3ccccc3)CC2)coc2ccc(Cl)cc12", "activity change, negative = growth inhibition": "inconclusive: -33.2% [inhibitor]"},
      {"smiles": "CSc1ccccc1OCc1cc(C(=O)NCC(C)Oc2cccnc2)no1", "note": "(stereo unspecified)", "Potency": "active: 16.4 µM"},
      {"smiles": "CCOc1ccc(C(=O)CC(Sc2ccc(C)cc2)C(=O)O)cc1", "note": "(stereo unspecified)", "Potency": "inconclusive [inhibitor, partial curve, poor fit]"},
      {"smiles": "O=C(NCc1ccco1)c1ccc([N+](=O)[O-])o1", "Potency": "inconclusive [inhibitor, single point]"},
      {"smiles": "Cc1ccc(Cc2c(C)nc3nc(SCC(=O)NCCCN4CCCC4)nn3c2C)cc1", "Potency": "inactive"},
      {"smiles": "Cc1ccc(S(=O)(=O)N2CCN(c3nc(-c4cnccn4)nc4ccccc34)CC2)cc1", "Potency": "active: 17.8 µM"}
    ]}
  ]
}
